Assay results taken from PubChem BioAssay AID624296 (National Center for Advancing Translational Sciences (NCATS), 2012).
Screen size: about 350,000 compounds; about 9,900 (2.8%) were called active. Inconclusive results, whose numbers are uncertain, are shown with a selection of clear calls. The call rests on the fitted dose curve; in most records, active means well fitted activation curve with a large enough effect; inconclusive means small, poorly fitted or top-dose-only effect; inactive means no such curve, though single readings can be large or run the other way. No potency is given beside an inconclusive call; the fits are too rough.

assay: A quantitative high throughput screen for small molecules that induce DNA re-replication in MCF 10a normal breast cells.; further: nearly all actives have a fitted effect of over 50% in size; on activity, positive = re-replication: % of control where 0% means no effect; conditions: MCF 10A DNA re-replication, Hoechst nuclear intensity, 48 h; activity, positive = re-replication: at 46.1 µM (top of the series)
Potency means the concentration at half of the fitted maximal effect; tags describe the fitted curve by direction and shape.

Structure (SMILES) | Potency | activity, positive = re-replication
CC(NC1=CC(=O)c2cccnc2C1=O)C(O)c1ccccc1 (configuration not stated) | active: 3.66 µM | –
COc1ccc2c(c1)CC1c3c(cc4c(c3-2)OCO4)CC[N+]1(C)[O-] (configuration not stated) | – | inactive: -7.65%
CCOC(=O)c1cc(-c2ccc(Cl)cc2)nc2c1c(C)nn2CCC#N | inconclusive [activator, partial curve, poor fit] | –
COC(=O)c1ccc(-c2cc3onc(-c4ccccc4)c3c(=O)n2C)cc1 | inconclusive [activator, single point] | –
C=C(C)Cn1c(C)cc(C)c(S(=O)(=O)c2ccccc2C)c1=O | inconclusive [activator, single point] | –
CC1(C)CC2CC(C)(CN2C(=O)c2cc(-c3ccc(O)cc3)on2)C1 (configuration not stated) | inconclusive [activator, partial curve] | –
CC(C(=O)NCCCc1ccccc1)c1ccc([N+](=O)[O-])cc1 (configuration not stated) | – | inactive: -0.994%
CC(=O)NC(Cc1ccc(F)cc1)C(=O)NC1CCN(c2ncccc2[N+](=O)[O-])CC1 (configuration not stated) | active: 0.82 µM | –
O=C(c1cccs1)N1CCCC(N2CCN(c3cccc(C(F)(F)F)c3)CC2)C1 (configuration not stated) | inconclusive [activator, partial curve, poor fit] | –
CNc1oc(-c2ccc(Cl)cc2)nc1P(=O)(c1ccccc1)c1ccccc1 | active: 16.4 µM | –
COC(=O)c1ccc(CSc2nnc(-c3ccc4c(c3)OCO4)n2-c2ccccc2)o1 | inconclusive [activator, single point] | –
CCC(=O)Nc1ccc(C(=O)NNC(=O)c2cc([N+](=O)[O-])cc([N+](=O)[O-])c2)cc1 | – | inactive: 11.3%
COc1ccc(C(=O)N/C(N)=N/c2nc3ccccc3o2)cc1 | inconclusive [activator, single point] | –
O=C(CN(Cc1ccco1)C(=O)c1ccccc1)Nc1ccc(Cl)c(Cl)c1 | inconclusive [activator, single point] | –
COc1ccccc1C(NC(C)=O)c1cc(Cl)c2cccnc2c1O (configuration not stated) | inconclusive [activator, partial curve, poor fit] | –
CCOC(=O)c1cc(-c2ccc(/C=C3/C(=O)N(c4ccc(C(=O)O)cc4)N=C3C)o2)ccc1Cl | inconclusive [activator, single point] | –
Cc1ccc(Cn2c(N)c(S(=O)(=O)c3cccs3)c3nc4ccccc4nc32)cc1 | inconclusive [activator, partial curve] | –
CC(=O)N(c1ccc(Cl)cc1)c1cn(C(C)=O)c2ccccc12 | – | inactive: -0.315%
CCOC(=O)/C(=C/c1cn(C)c2ccccc12)NC(=O)c1ccccc1 | – | inactive: 1.4%
CC1COCC(C)N1C1=C(Cl)C(=O)c2ccccc2C1=O (configuration not stated) | inconclusive [activator, full curve, poor fit] | –
CCOc1cc(/C=C\c2[nH]c(=O)[nH]c(=O)c2[N+](=O)[O-])ccc1OC(C)CC (configuration not stated) | inconclusive [activator, single point] | –

Structure (SMILES) | Potency | activity, positive = re-replication
CC(NC(=O)c1ccc([N+](=O)[O-])o1)C12CC3CC(CC(C3)C1)C2 (configuration not stated) | inconclusive [activator, single point] | –
Cc1noc(C)c1CSc1nc2ccccc2c(=O)n1-c1ccc(Cl)cc1 | inconclusive [activator, single point] | –
CC(C)(C)N/N=C1\CC(c2ccccc2)Oc2ccccc21 (configuration not stated) | inconclusive [activator, partial curve] | –
CCC(C)(C)n1nnnc1C(c1ccccc1F)N1CCN(C(=O)c2ccco2)CC1 (configuration not stated) | – | inactive: -2.87%
Cn1c2ccccc2c2cnn(CC(=O)Nc3ccccc3Br)c(=O)c21 | inconclusive [activator, single point] | –
Cc1cc(C)c2sc(N(CCN(C)C)C(=O)CCS(=O)(=O)c3ccccc3)nc2c1 | inconclusive [activator, single point] | –
O=C(CCl)N=c1sccn1Cc1ccccc1Cl | inconclusive [activator, single point] | –
O=C(N/N=C/c1ccc(O)cc1)Nc1cccc2nsnc12 | inconclusive [activator, single point] | –
NC1=NC(=O)/C(=C\c2ccsc2)S1 | – | inactive: 4.82%
CN(C(=O)c1cccc(NC(=O)Cc2ccc(NC(=O)C3CCN(C(=O)C4CCC4)CC3)cc2)c1)C1CCCC1 | inconclusive [activator, single point] | –
CCCN(c1ccc(C)cc1)c1nc(=O)c2cccnc2s1 | inconclusive [activator, full curve, poor fit] | –
O=C(O)CN1C(=O)c2ccc(Oc3ccc4c(c3)C(=O)N(CC(=O)O)C4=O)cc2C1=O | – | inactive: 8.88%
CCN(CC)c1ccc(NC(=O)c2ccc(=O)[nH]c2)cc1S(=O)(=O)Nc1ccccc1OC | inconclusive [activator, single point] | –
CC(C)c1ccc(C2C3=C(COC3=O)Nc3cc4c(cc32)OCO4)cc1 (configuration not stated) | inconclusive [activator, full curve, poor fit] | –
c1ccc(C(=NNc2nc3ccccc3s2)c2ccccn2)cc1 | inconclusive [activator, full curve] | –
COC(=O)[C@@]1(Cc2ccc(OC)cc2)[C@H]2c3cc(C(=O)N4CCCC4)n(CCO)c3C[C@H]2CN1C(=O)c1ccccc1 | – | inactive: 24.2%
CCOc1cc(/C=N/NC(=O)CSc2cccc3cccnc23)ccc1O | inconclusive [activator, single point] | –
COc1ccc(C(=O)Nc2ccc3[nH]ncc3c2)cc1OC | – | inactive: -3.02%
CC(=O)Nc1c(Cl)cnn(-c2ccccc2)c1=O | – | inactive: -1.52%
COc1cc(C)c(NC(=O)COc2ccc3c(c2)CCC3)cc1OC | inconclusive [activator, partial curve, poor fit] | –
O=c1c(/C=C(\O)c2ccccc2)nc2ccccc2n1-c1ccccc1 | inconclusive [activator, single point] | –
